The campaign covered roughly 310,000 compounds. About 14,000 (4.5%) showed an effect of 50% or more. Effects have a minus sign here. The list shows a part of the results.
biological target: human ether-à-go-go-related gene (hERG) potassium channel (human, UniProt Q12809); assay: primary screen, population patch clamp on CHO cells stably expressing hERG
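Further: peak tail current of the secondary pulse compared with the same well before compound.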

human ether-à-go-go-related gene (hERG) potassium channel, sequence (Q12809 whole entry, looked up): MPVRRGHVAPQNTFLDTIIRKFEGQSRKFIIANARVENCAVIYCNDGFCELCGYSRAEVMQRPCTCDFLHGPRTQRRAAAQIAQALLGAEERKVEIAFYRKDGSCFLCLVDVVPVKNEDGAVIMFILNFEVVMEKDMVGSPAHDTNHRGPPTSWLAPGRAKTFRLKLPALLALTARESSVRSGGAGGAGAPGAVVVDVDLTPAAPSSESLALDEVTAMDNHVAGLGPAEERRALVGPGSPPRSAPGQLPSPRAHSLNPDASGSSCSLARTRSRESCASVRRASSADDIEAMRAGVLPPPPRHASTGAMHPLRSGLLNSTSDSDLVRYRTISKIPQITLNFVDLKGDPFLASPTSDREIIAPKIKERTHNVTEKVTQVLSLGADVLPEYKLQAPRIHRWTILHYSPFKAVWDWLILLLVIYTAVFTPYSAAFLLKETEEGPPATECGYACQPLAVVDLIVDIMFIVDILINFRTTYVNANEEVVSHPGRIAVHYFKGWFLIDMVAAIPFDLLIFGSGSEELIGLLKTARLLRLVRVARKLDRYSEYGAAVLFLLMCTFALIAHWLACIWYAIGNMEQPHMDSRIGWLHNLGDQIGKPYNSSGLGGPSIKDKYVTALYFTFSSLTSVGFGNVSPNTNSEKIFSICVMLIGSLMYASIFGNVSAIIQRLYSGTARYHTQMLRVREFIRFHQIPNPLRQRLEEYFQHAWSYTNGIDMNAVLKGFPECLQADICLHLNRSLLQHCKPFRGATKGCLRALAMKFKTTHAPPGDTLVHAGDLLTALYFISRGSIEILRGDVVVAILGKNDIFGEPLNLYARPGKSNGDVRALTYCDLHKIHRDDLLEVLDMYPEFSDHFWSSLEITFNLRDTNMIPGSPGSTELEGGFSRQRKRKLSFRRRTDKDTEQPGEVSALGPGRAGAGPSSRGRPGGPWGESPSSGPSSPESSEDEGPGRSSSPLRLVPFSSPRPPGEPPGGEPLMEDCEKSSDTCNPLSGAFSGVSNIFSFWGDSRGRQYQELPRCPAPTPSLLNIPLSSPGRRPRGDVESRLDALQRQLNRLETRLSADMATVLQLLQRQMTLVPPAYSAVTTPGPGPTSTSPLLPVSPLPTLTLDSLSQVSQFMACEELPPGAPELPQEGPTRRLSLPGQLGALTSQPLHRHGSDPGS

Row | Structure (SMILES) | hERG current change (%, negative = inhibition) at 10uM [%]
1 | COc1ccccc1C(=O)NNC(=O)c1nn(Cc2ccccc2)c(=O)c2ccccc12 | -14
2 | COc1ccc(NC(=O)C(=O)NCCC2=CCCCC2)c(OC)c1 | 0.834
3 | Cc1nc2ccccc2c(=O)n1-n1cnnc1 | -2.29
4 | O=c1oc(/C=C/c2ccc([N+](=O)[O-])s2)nc2ccccc12 | 17.7
5 | CCC(=O)N1CN(S(=O)(=O)c2ccc(C)cc2)CC1C (stereo not shown) | 3.35
6 | COC(=O)/C(=N\OCc1ccc(C#N)cc1)c1c(C)nn(C)c1C | -29.3
7 | CCCCSc1cc(=O)n(-c2ccccc2)nc1C(=O)OCC | 12.9
8 | Cn1nnnc1P(=O)(c1ccccc1)c1ccccc1 | 7.84
9 | Cc1cc(NC(=O)CN2CCN(c3ccccn3)CC2)ccc1Br | -22.7
10 | O=C(CNC(=O)/C(=C\c1ccc(Br)cc1)NC(=O)c1ccccc1)OCc1ccccc1 | -59.9
11 | COC(=O)CNC(=O)c1ccccc1[N+](=O)[O-] | 12.4
12 | O=C(CNc1ccccc1)N/N=C/c1ccc([N+](=O)[O-])o1 | -39.3
13 | Cc1ccc(S(=O)(=O)CC(=O)Nc2ccc(S(=O)(=O)Nc3ccccn3)cc2)cc1 | 9.34
14 | Cc1ccc(S(=O)(=O)NCc2ccccc2)cc1C(=O)N1CCCCC1 | -2.54
15 | COC(=O)CCN(C1CCCCC1)S(=O)(=O)c1ccc(S(=O)(=O)N2CCCCC2)cc1 | -2.64
16 | CC(C)n1c(Nn2cnnc2)nc2ccccc21 | -3.56
17 | O=C(CSc1nnc2c(n1)[nH]c1ccccc12)NC1CCCCC1 | -1.3
18 | COC(=O)c1cc(C(=O)N2CCN(c3ncccn3)CC2)cc([N+](=O)[O-])c1 | -5.19
19 | COc1ccc(S(=O)(=O)N2CCCCC2)cc1NCC(=O)Nc1ccc(C)cc1 | 9.08
20 | COc1ccc(C(=O)NCc2nc(C)c(C)s2)cc1OC1CCN(C(C)C)CC1 | -0.645
21 | COC(=O)c1ccc(COC(=O)CNS(=O)(=O)c2ccc(C)cc2)cc1 | 3.3
22 | COc1ccccc1NS(=O)(=O)c1cc(NC(=O)c2ccco2)ccc1N1CCOCC1 | -7.06

Row | Structure (SMILES) | hERG current change (%, negative = inhibition) at 10uM [%]
23 | CN(C)CCCNc1ncnc2c1c(-c1ccccc1)cn2-c1ccccc1 | -64.4
24 | CCN1CCN(C(=O)c2ccc(CN(c3ccccc3)S(=O)(=O)c3ccccc3)cc2)CC1 | -43.2
25 | CCOc1ccc(NC(=O)CSc2nnc(-c3ccoc3C)n2CC2CCCO2)cc1 (stereo not shown) | -19.1
26 | COc1cccc(C(=O)NCc2ccc3c(c2)OCO3)c1OC | 16.3
27 | O=C(CCNC(=O)c1ccc(Br)cc1)Nc1ccccc1N1CCCCC1 | 10.7
28 | CC1(C)C2CC=C(/C=N/NC(=S)NCCc3ccccc3)C1C2 (stereo not shown) | 29.1
29 | CCC(=O)Nc1ccc(NC(=O)c2ccccc2Cl)nc1 | 9.2
30 | O=C(NCC(c1ccco1)N1CCN(c2ccccc2)CC1)c1ccc2c(c1)OCO2 (stereo not shown) | -5.86
31 | CC1CN(C2=NC(=O)/C(=C/c3ccncc3)S2)CC(C)O1 (stereo not shown) | -14.5
32 | COc1ccc(CCNC(=O)c2ccc(Cl)cc2Cl)cc1OC | 2.49
33 | O=C(CCS(=O)(=O)c1ccc(Br)s1)Nc1ccccc1Br | 15.3
34 | O=C(Nc1ccccc1)Nc1ccc2nnsc2c1 | 1.79
35 | CCOC(=O)CC1C(=O)NCCN1C(=O)c1cccc(C(F)(F)F)c1 (stereo not shown) | 11.4
36 | COc1ccc(NC(=O)CN2CCC(C)CC2)cc1 | -4.51
37 | Cc1cc(S(=O)(=O)N2CCN(C(=O)CCC(=O)N3CCOCC3)CC2)ccc1Br | -6.63
38 | CCc1cccc2c(=O)c(C(=O)NCCN3CCOCC3)c[nH]c12 | 12.3
39 | Cc1ccc(OCc2nc(-c3ccccc3)no2)c(C)c1 | 8.51
40 | O=C(CN1C2CCCC1CC(NC(=O)c1ccco1)C2)Nc1ccccc1C(F)(F)F (stereo not shown) | -5.35
41 | Cc1ccc2c(c1)c1c(n2C)C(C(N)=O)CCC1 (stereo not shown) | -19.5
42 | CCOC(=O)CCn1c(=O)c2c(nc(Br)n2Cc2ccccc2)n(C)c1=O | -11.5
43 | CC12CN3CC(C)(CN(C1)C3c1ccco1)C2=O (stereo not shown) | -7.98

Source: PMC4336329 (PLoS ONE, 2015)
